{"source": "the supplement of paper PMC11741623", "binders": {"B1": {"name": "AMY2A, P04746 (protein)", "chain": "MKFFLLLFTIGFCWAQYSPNTQQGRTSIVHLFEWRWVDIALECERYLAPKGFGGVQVSPPNENVAIYNPFRPWWERYQPVSYKLCTRSGNEDEFRNMVTRCNNVGVRIYVDAVINHMCGNAVSAGTSSTCGSYFNPGSRDFPAVPYSGWDFNDGKCKTGSGDIENYNDATQVRDCRLTGLLDLALEKDYVRSKIAEYMNHLIDIGVAGFRLDASKHMWPGDIKAILDKLHNLNSNWFPAGSKPFIYQEVIDLGGEPIKSSDYFGNGRVTEFKYGAKLGTVIRKWNGEKMSYLKNWGEGWGFVPSDRALVFVDNHDNQRGHGAGGASILTFWDARLYKMAVGFMLAHPYGFTRVMSSYRWPRQFQNGNDVNDWVGPPNNNGVIKEVTINPDTTCGNDWVCEHRWRQIRNMVIFRNVVDGQPFTNWYDNGSNQVAFGRGNRGFIVFNNDDWSFSLTLQTGLPAGTYCDVISGDKINGNCTGIKIYVSDDGKAHFSISNSAEDPFIAIHAESKL"}, "B2": {"name": "KIR3DL1, P43629 (protein)", "chain": "MSLMVVSMACVGLFLVQRAGPHMGGQDKPFLSAWPSAVVPRGGHVTLRCHYRHRFNNFMLYKEDRIHIPIFHGRIFQESFNMSPVTTAHAGNYTCRGSHPHSPTGWSAPSNPVVIMVTGNHRKPSLLAHPGPLVKSGERVILQCWSDIMFEHFFLHKEGISKDPSRLVGQIHDGVSKANFSIGPMMLALAGTYRCYGSVTHTPYQLSAPSDPLDIVVTGPYEKPSLSAQPGPKVQAGESVTLSCSSRSSYDMYHLSREGGAHERRLPAVRKVNRTFQADFPLGPATHGGTYRCFGSFRHSPYEWSDPSDPLLVSVTGNPSSSWPSPTEPSSKSGNPRHLHILIGTSVVIILFILLLFFLLHLWCSNKKNAAVMDQEPAGNRTANSEDSDEQDPEEVTYAQLDHCVFTQRKITRPSQRPKTPPTDTILYTELPNAKPRSKVVSCP"}, "B3": {"name": "AGBL2, Q5U5Z8 (protein)", "chain": "MFPALETHLKQTIPDPYEDFMYRHLQYYGYFKAQRGSLPNSATHQHVRKNNPQCLLNGSLGEKDDLIPDTLQKEKLLWPISLSSAVHRQIEAINRDFHSCLGWMQWRGLSSLQPPPPRFKDSPASAFRVAGITDSHMLSLPHLRSRQLLYDELDEVNPRLREPQELFSILSTKRPLQAPRWPIECEVIKENIHHIEWAPPQPEYFYQPKGNEKVPEIVGEKKGTVVYQLDSVPIEGSYFTSSRVGGKRGIVKELAVTLQGPEDNTLLFESRFESGNLQKAVRVDTYEYELTLRTDLYTNKHTQWFYFRVQNTRKDATYRFTIVNLLKPKSLYTVGMKPLLYSQLDANTRNIGWRREGNEIKYYKNNTDDGQQPFYCLTWTIQFPYDQDTCFFAHFYPYTYTDLQCYLLSVANNPIQSQFCKLQTLCRSLAGNTVYLLTITNPSQTPQEAAAKKAVVLSARVHPGESNGSWVMKGFLDFILSNSPDAQLLRDIFVFKVLPMLNPDGVIVGNYRCSLAGRDLNRHYKTILKESFPCIWYTRNMIKRLLEEREVLLYCDFHGHSRKNNIFLYGCNNNNRKYWLHERVFPLMLCKNAPDKFSFHSCNFKVQKCKEGTGRVVMWRMGILNSYTMESTFGGSTLGNKRDTHFTIEDLKSLGYHVCDTLLDFCDPDQMKFTQCLAELKELLRQEIHKKFHELGQDVDLEGSWSDISLSDIESSTSGSDSSLSDGLPVHLANIADELTQKKKMFKKKKKKSLQTRKQRNEQYQKKNLMQKLKLTEDTSEKAGFASTLQKQPTFFKNSENSSFLPMKNENPRLNETNLNRRDKDTPLDPSMATLILPKNKGRMQNKKPGFTVSCSPKRTINSSQEPAPGMKPNWPRSRYPATKRGCAAMAAYPSLHIYTYP"}}, "note": "The list shows a part of the results. Interaction screen of human proteins with wild-type SARS-CoV-2 proteins by split-DHFR complementation in yeast, 1 µg/mL methotrexate. Value = fitness of the pair (three or more lineages) minus that of the viral protein without a human partner, on a scale set by negative (0) and fused positive (1) controls, mean of up to three cultures; higher = more likely to interact. Active = false discovery rate below 0.05 (one-sided t-test) in at least one culture. Nearly all pairs are not hits, and differences among them are mostly noise (correlation between cultures about 0.3); most hits were seen in one culture only. Human sequences are the Swiss-Prot entries looked up by gene name; the clone may be another isoform. NSP2 values were corrected by the authors for a growth advantage. Listed are human proteins with a hit and a random twelfth of the others."}
{"biological_target": "SARS-CoV-2 M", "assay": "yeast fitness gain over the viral ORF with no human partner (scaled fitness); higher = more likely to interact", "description": "(§1)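 Split mouse DHFR complementation in pooled diploid yeast: human ORFeome clones carry one fragment and viral ORFs the other; barcoded lineages compete in 1 µg/mL methotrexate and fitness is read by barcode sequencing in up to three cultures.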"}
{"binder": "B1", "yeast fitness gain": "inactive: 0.0597"}
{"binder": "B2", "yeast fitness gain": "inactive: -0.0186"}
{"binder": "B3", "yeast fitness gain": "inactive: 0.029"}
{"biological_target": "SARS-CoV-2 NSP1", "assay": "yeast fitness gain over the viral ORF with no human partner (scaled fitness); higher = more likely to interact", "description": "as §1"}
{"binder": "B1", "yeast fitness gain": "inactive: 0.0862"}
{"binder": "B2", "yeast fitness gain": "inactive: -0.256"}
{"binder": "B3", "yeast fitness gain": "inactive: -0.0385"}
{"biological_target": "SARS-CoV-2 NSP10", "assay": "yeast fitness gain over the viral ORF with no human partner (scaled fitness); higher = more likely to interact", "description": "as §1"}
{"binder": "B1", "yeast fitness gain": "inactive: 0.042"}
{"binder": "B2", "yeast fitness gain": "inactive: -0.195"}
{"binder": "B3", "yeast fitness gain": "inactive: -0.0302"}
{"biological_target": "SARS-CoV-2 NSP12", "assay": "yeast fitness gain over the viral ORF with no human partner (scaled fitness); higher = more likely to interact", "description": "as §1"}
{"binder": "B1", "yeast fitness gain": "inactive: 0.0676"}
{"binder": "B2", "yeast fitness gain": "inactive: -0.0806"}
{"binder": "B3", "yeast fitness gain": "inactive: 0.0434"}
{"biological_target": "SARS-CoV-2 NSP13", "assay": "yeast fitness gain over the viral ORF with no human partner (scaled fitness); higher = more likely to interact", "description": "as §1"}
{"binder": "B1", "yeast fitness gain": "inactive: 0.106"}
{"binder": "B2", "yeast fitness gain": "inactive: -0.00503"}
{"binder": "B3", "yeast fitness gain": "inactive: -0.0142"}
{"biological_target": "SARS-CoV-2 NSP14", "assay": "yeast fitness gain over the viral ORF with no human partner (scaled fitness); higher = more likely to interact", "description": "as §1"}
{"binder": "B1", "yeast fitness gain": "inactive: 0.114"}
{"biological_target": "SARS-CoV-2 NSP15", "assay": "yeast fitness gain over the viral ORF with no human partner (scaled fitness); higher = more likely to interact", "description": "as §1"}
{"binder": "B1", "yeast fitness gain": "inactive: -0.475"}
{"binder": "B3", "yeast fitness gain": "inactive: 0.105"}
{"biological_target": "SARS-CoV-2 NSP16", "assay": "yeast fitness gain over the viral ORF with no human partner (scaled fitness); higher = more likely to interact", "description": "as §1"}
{"binder": "B1", "yeast fitness gain": "inactive: 0.102"}
{"binder": "B3", "yeast fitness gain": "inactive: -0.0874"}
{"biological_target": "SARS-CoV-2 NSP2", "assay": "yeast fitness gain over the viral ORF with no human partner (scaled fitness); higher = more likely to interact", "description": "as §1"}
{"binder": "B1", "yeast fitness gain": "inactive: -0.0695"}
{"binder": "B2", "yeast fitness gain": "inactive: 0.0276"}
{"binder": "B3", "yeast fitness gain": "inactive: -0.152"}
{"biological_target": "SARS-CoV-2 NSP4", "assay": "yeast fitness gain over the viral ORF with no human partner (scaled fitness); higher = more likely to interact", "description": "as §1"}
{"binder": "B1", "yeast fitness gain": "inactive: 0.0682"}
{"binder": "B2", "yeast fitness gain": "inactive: -0.416"}
{"biological_target": "SARS-CoV-2 NSP5", "assay": "yeast fitness gain over the viral ORF with no human partner (scaled fitness); higher = more likely to interact", "description": "as §1"}
{"binder": "B1", "yeast fitness gain": "inactive: 0.026"}
{"binder": "B2", "yeast fitness gain": "inactive: 0.0543"}
{"binder": "B3", "yeast fitness gain": "inactive: 0.0144"}
{"biological_target": "SARS-CoV-2 NSP6", "assay": "yeast fitness gain over the viral ORF with no human partner (scaled fitness); higher = more likely to interact", "description": "as §1"}
{"binder": "B1", "yeast fitness gain": "inactive: 0.0252"}
{"binder": "B2", "yeast fitness gain": "inactive: -0.0456"}
{"binder": "B3", "yeast fitness gain": "inactive: -0.0793"}
{"biological_target": "SARS-CoV-2 NSP7", "assay": "yeast fitness gain over the viral ORF with no human partner (scaled fitness); higher = more likely to interact", "description": "as §1"}
{"binder": "B1", "yeast fitness gain": "inactive: 0.0212"}
{"binder": "B3", "yeast fitness gain": "inactive: -0.0362"}
{"biological_target": "SARS-CoV-2 NSP8", "assay": "yeast fitness gain over the viral ORF with no human partner (scaled fitness); higher = more likely to interact", "description": "as §1"}
{"binder": "B1", "yeast fitness gain": "inactive: 0.0969"}
{"binder": "B3", "yeast fitness gain": "inactive: 0.0381"}
{"biological_target": "SARS-CoV-2 NSP9", "assay": "yeast fitness gain over the viral ORF with no human partner (scaled fitness); higher = more likely to interact", "description": "as §1"}
{"binder": "B1", "yeast fitness gain": "inactive: 0.0778"}
{"binder": "B3", "yeast fitness gain": "inactive: -0.05"}
{"biological_target": "SARS-CoV-2 ORF10", "assay": "yeast fitness gain over the viral ORF with no human partner (scaled fitness); higher = more likely to interact", "description": "as §1"}
{"binder": "B1", "yeast fitness gain": "inactive: 0.0143"}
{"binder": "B3", "yeast fitness gain": "inactive: 0.0117"}
{"biological_target": "SARS-CoV-2 ORF3A", "assay": "yeast fitness gain over the viral ORF with no human partner (scaled fitness); higher = more likely to interact", "description": "as §1"}
{"binder": "B1", "yeast fitness gain": "inactive: -0.0503"}
{"biological_target": "SARS-CoV-2 ORF3B", "assay": "yeast fitness gain over the viral ORF with no human partner (scaled fitness); higher = more likely to interact", "description": "as §1"}
{"binder": "B1", "yeast fitness gain": "inactive: 0.0706"}
{"binder": "B3", "yeast fitness gain": "inactive: 0.0057"}
{"biological_target": "SARS-CoV-2 ORF6", "assay": "yeast fitness gain over the viral ORF with no human partner (scaled fitness); higher = more likely to interact", "description": "as §1"}
{"binder": "B1", "yeast fitness gain": "inactive: -0.0118"}
{"binder": "B2", "yeast fitness gain": "inactive: 0.0451"}
{"binder": "B3", "yeast fitness gain": "inactive: -0.0649"}
{"biological_target": "SARS-CoV-2 ORF7A", "assay": "yeast fitness gain over the viral ORF with no human partner (scaled fitness); higher = more likely to interact", "description": "as §1"}
{"binder": "B1", "yeast fitness gain": "inactive: 0.0569"}
{"binder": "B3", "yeast fitness gain": "inactive: -0.263"}
{"biological_target": "SARS-CoV-2 ORF7B", "assay": "yeast fitness gain over the viral ORF with no human partner (scaled fitness); higher = more likely to interact", "description": "as §1"}
{"binder": "B1", "yeast fitness gain": "inactive: 0.0842"}
{"binder": "B2", "yeast fitness gain": "inactive: -0.0564"}
{"binder": "B3", "yeast fitness gain": "inactive: 0.0708"}
{"biological_target": "SARS-CoV-2 ORF8", "assay": "yeast fitness gain over the viral ORF with no human partner (scaled fitness); higher = more likely to interact", "description": "as §1"}
{"binder": "B1", "yeast fitness gain": "inactive: -0.0134"}
{"binder": "B2", "yeast fitness gain": "inactive: 0.0385"}
{"binder": "B3", "yeast fitness gain": "inactive: 0.064"}
{"biological_target": "SARS-CoV-2 ORF9B", "assay": "yeast fitness gain over the viral ORF with no human partner (scaled fitness); higher = more likely to interact", "description": "as §1"}
{"binder": "B1", "yeast fitness gain": "inactive: 0.0464"}
{"binder": "B2", "yeast fitness gain": "inactive: -0.0644"}
{"binder": "B3", "yeast fitness gain": "inactive: -0.0601"}
{"biological_target": "SARS-CoV-2 ORF9Bwu (the 73-codon ORF)", "assay": "yeast fitness gain over the viral ORF with no human partner (scaled fitness); higher = more likely to interact", "description": "as §1"}
{"binder": "B1", "yeast fitness gain": "inactive: 0.0696"}
{"binder": "B3", "yeast fitness gain": "inactive: -0.118"}
{"biological_target": "SARS-CoV-2 S", "assay": "yeast fitness gain over the viral ORF with no human partner (scaled fitness); higher = more likely to interact", "description": "as §1"}
{"binder": "B1", "yeast fitness gain": "inactive: -0.116"}
{"binder": "B3", "yeast fitness gain": "inactive: 0.0903"}
